B1: CD80_213-Fc, variant CD80 IgV-Fc V11Y/V68T (Fc fusion)
chain: VIHVTKEVKEYATLSCGHNVSVEELAQTRIYWQKEKKMVLTMMSGDMNIWPEYKNRTIFDITNNLSITILALRPSDEGTYECVVLKYEKDAFKREHLAEVTLSVKADGSGGGGS[omitted - human IgG4 Fc with S228P (EU numbers)]
notes: variant IgV - GSGGGGS - human IgG4 Fc (S228P)
B2: CD80_225-Fc, variant CD80 IgV-Fc V11Y/M47L/V68T (Fc fusion)
chain: B1 chain with M47L
notes: as for B1
B3: CD80_216-Fc, variant CD80 IgV-Fc V11W/T28Y/D46V/R73E/F92L (Fc fusion)
chain: B1 chain with Y11W, T28Y, D46V, T68V, R73E, F92L
notes: as for B1
B4: CD80_231-Fc, consensus variant CD80 IgV-Fc V11W/T28Y/M47L (Fc fusion)
chain: B1 chain with Y11W, T28Y, M47L, T68V
notes: as for B1
B5: CD80_215-Fc, variant CD80 IgV-Fc K9R/E10A/E35G/V68L/L85E (Fc fusion)
chain: B1 chain with K9R, E10A, Y11V, E35G, T68L, L85E
notes: as for B1
B6: CD80_229-Fc, variant CD80 IgV-Fc V11Y/M47V/A71G/L85E (Fc fusion)
chain: B1 chain with M47V, T68V, A71G, L85E
notes: as for B1
B7: CD80_217-Fc, variant CD80 IgV-Fc K9N/E10G/Y87K/T101Q (Fc fusion)
chain: B1 chain with K9N, E10G, Y11V, T68V, Y87K, T101Q
notes: as for B1
B8: CD80_220-Fc, variant CD80 IgV-Fc H18F/T28V/M47L/V68S (Fc fusion)
chain: B1 chain with Y11V, H18F, T28V, M47L, T68S
notes: as for B1
B9: CD80_224-Fc, variant CD80 IgV-Fc K9N/V11W/M47L/V68T/R73T/Y87N (Fc fusion)
chain: B1 chain with K9N, Y11W, M47L, R73T, Y87N
notes: as for B1
B10: CD80_218-Fc, variant CD80 IgV-Fc V11W/T28Y/D46V/V68T/R73T/Y87N (Fc fusion)
chain: B1 chain with Y11W, T28Y, D46V, R73T, Y87N
notes: as for B1
B11: CD80_219-Fc, variant CD80 IgV-Fc E10S/V11Y/M42R/A71V (Fc fusion)
chain: B1 chain with E10S, M42R, T68V, A71V
notes: as for B1
B12: CD80_226-Fc, variant CD80 IgV-Fc K9R/A26T/T28Y/E35A/M47L/A71G (Fc fusion)
chain: B1 chain with K9R, Y11V, A26T, T28Y, E35A, M47L, T68V, A71G
notes: as for B1
B13: CD80_228-Fc, variant CD80 IgV-Fc E7Q/V11Y/R29H/M47L/V68T (Fc fusion)
chain: B1 chain with E7Q, R29H, M47L
notes: as for B1
B14: CD80_214-Fc, variant CD80 IgV-Fc E10G/E35G/D46E/M47V/V68M/T101K (Fc fusion)
chain: B1 chain with E10G, Y11V, E35G, D46E, M47V, T68M, T101K
notes: as for B1
B15: CD80_221-Fc, variant CD80 IgV-Fc E10G/A26S/T28Y (Fc fusion)
chain: B1 chain with E10G, Y11V, A26S, T28Y, T68V
notes: as for B1
B16: CD80_230-Fc, variant CD80 IgV-Fc E10G/Q27F/D46N/A71G/D90G (Fc fusion)
chain: B1 chain with E10G, Y11V, Q27F, D46N, T68V, A71G, D90G
notes: as for B1
B17: CD80_222-Fc, variant CD80 IgV-Fc E35D/D46Q/L85E (Fc fusion)
chain: B1 chain with Y11V, E35D, D46Q, T68V, L85E
notes: as for B1
B18: CD80_233-Fc, consensus variant CD80 IgV-Fc V11Y/T28Y/M47L/V68M (Fc fusion)
chain: B1 chain with T28Y, M47L, T68M
notes: as for B1
B19: CD80_232-Fc, consensus variant CD80 IgV-Fc V11F/T28Y/M47L (Fc fusion)
chain: B1 chain with Y11F, T28Y, M47L, T68V
notes: as for B1

Changes are numbered by the printed parent chain. Numbers in names are those of the source.

The assay addresses T1, human CD28 (endogenously expressed on primary human T cells) (human, UniProt P10747 19-220).
T1 construct: whole, on cells
Kind of assay: flow cytometry, primary human T cells. As for the experimental part: Binding affinity to CD28 was determined using primary human T cells which endogenously express CD28. Binding to PD-L1 was determined using SCC152 cells transduced with human PD-L1. Binding to CTLA-4 was measured using Chinese hamster ovary (CHO) cells stably transduced to express human CTLA-4.
For staining and analysis by flow cytometry, 75,000 human T cells, SCC152/PD-L1 cells, or CHO/CTLA-4 cells were plated in 96-well round-bottom plates. Cells were spun down and resuspended in staining buffer (PBS (phosphate buffered saline), 1% BSA (bovine serum albumin), 1 mM EDTA, and 0.1% sodium azide) for 20 minutes to block non-specific binding. Afterwards, cells were centrifuged, stain buffer aspirated, and then resuspended in 50 μL of a 1:5 serial dilution of each CD80-Fc candidate variant starting at 100 nM ending at 0.8 nM. Primary staining was performed on ice for 60 minutes, before washing cells in […] staining buffer three times. PE-conjugated anti-human Fc (Jackson ImmunoResearch, USA) was diluted 1:250 in 50 μL staining buffer and added to cells and incubated another 30 minutes at 4° C. Cells were washed two times in 150 μL stain buffer and then fixed in 2% formaldehyde/PBS for 5 minutes at room temperature. Samples were analyzed CytoFLEX LX flow cytometer (Beckman Coulter, USA). Median Fluorescence Intensity (MFI) was calculated for each cell type using the CytExpert software from Beckman Coulter.
As for B1, the “MFI (anti-human Fc) at 0.8 nM” value stood at 219 MFI, the “MFI (anti-human Fc) at 4 nM” value stood at 381 MFI, the “MFI (anti-human Fc) at 20 nM” value stood at 630 MFI and the “MFI (anti-human Fc) at 100 nM” value came out at 851 MFI. For the same molecule, the “fold change of MFI vs WT CD80 at 20 nM” value worked out at 3.5 fold.

On to B2, for which the “MFI (anti-human Fc) at 0.8 nM” value amounted to 236 MFI, the “MFI (anti-human Fc) at 4 nM” value amounted to 422 MFI, the “MFI (anti-human Fc) at 20 nM” value amounted to 807 MFI and the “MFI (anti-human Fc) at 100 nM” value worked out at 1280 MFI. Further, the “fold change of MFI vs WT CD80 at 20 nM” value was determined as 4.5 fold.

Turning to B3, the “MFI (anti-human Fc) at 0.8 nM” value amounted to 247 MFI, the “MFI (anti-human Fc) at 4 nM” value was 355 MFI, the “MFI (anti-human Fc) at 20 nM” value was 771 MFI and the “MFI (anti-human Fc) at 100 nM” value is 1580 MFI. For the same molecule, the “fold change of MFI vs WT CD80 at 20 nM” value came out at 4.3 fold.

For B4, the “MFI (anti-human Fc) at 0.8 nM” value worked out at 232 MFI, the “MFI (anti-human Fc) at 4 nM” value was 397 MFI, the “MFI (anti-human Fc) at 20 nM” value was 978 MFI and the “MFI (anti-human Fc) at 100 nM” value was 2760 MFI. The “fold change of MFI vs WT CD80 at 20 nM” value amounted to 5.4 fold.

As to B5, the “MFI (anti-human Fc) at 0.8 nM” value came out at 212 MFI, the “MFI (anti-human Fc) at 4 nM” value is 249 MFI, the “MFI (anti-human Fc) at 20 nM” value turned out to be 413 MFI and the “MFI (anti-human Fc) at 100 nM” value came out at 719 MFI. Moreover, the “fold change of MFI vs WT CD80 at 20 nM” value turned out to be 2.3 fold.

With B6, the “MFI (anti-human Fc) at 0.8 nM” value worked out at 198 MFI, the “MFI (anti-human Fc) at 4 nM” value came to 196 MFI, the “MFI (anti-human Fc) at 20 nM” value was found to be 203 MFI and the “MFI (anti-human Fc) at 100 nM” value amounted to 218 MFI. For the same molecule, the “fold change of MFI vs WT CD80 at 20 nM” value came out at 1.1 fold.

Turning to B7, the “MFI (anti-human Fc) at 0.8 nM” value is 1040 MFI, the “MFI (anti-human Fc) at 4 nM” value amounted to 2680 MFI, the “MFI (anti-human Fc) at 20 nM” value is 4550 MFI and the “MFI (anti-human Fc) at 100 nM” value came to 4860 MFI. Moreover, the “fold change of MFI vs WT CD80 at 20 nM” value amounted to 25.3 fold.

For B8, the “MFI (anti-human Fc) at 0.8 nM” value came out at 687 MFI, the “MFI (anti-human Fc) at 4 nM” value turned out to be 1830 MFI, the “MFI (anti-human Fc) at 20 nM” value turned out to be 2920 MFI and the “MFI (anti-human Fc) at 100 nM” value came out at 3440 MFI. Also, the “fold change of MFI vs WT CD80 at 20 nM” value was found to be 16.2 fold.

Consider B9, for which the “MFI (anti-human Fc) at 0.8 nM” value came to 610 MFI, the “MFI (anti-human Fc) at 4 nM” value is 1650 MFI, the “MFI (anti-human Fc) at 20 nM” value came out at 2680 MFI and the “MFI (anti-human Fc) at 100 nM” value is 3360 MFI. Moreover, the “fold change of MFI vs WT CD80 at 20 nM” value turned out to be 14.9 fold.

On to B10, for which the “MFI (anti-human Fc) at 0.8 nM” value was 384 MFI, the “MFI (anti-human Fc) at 4 nM” value worked out at 919 MFI, the “MFI (anti-human Fc) at 20 nM” value stood at 2240 MFI and the “MFI (anti-human Fc) at 100 nM” value came out at 3460 MFI. In addition, the “fold change of MFI vs WT CD80 at 20 nM” value stood at 12.4 fold.

B11: the “MFI (anti-human Fc) at 0.8 nM” value came to 280 MFI, the “MFI (anti-human Fc) at 4 nM” value was found to be 578 MFI, the “MFI (anti-human Fc) at 20 nM” value is 1750 MFI and the “MFI (anti-human Fc) at 100 nM” value was 3190 MFI. Also, the “fold change of MFI vs WT CD80 at 20 nM” value stood at 9.7 fold.

In the case of B12, the “MFI (anti-human Fc) at 0.8 nM” value was determined as 207 MFI, the “MFI (anti-human Fc) at 4 nM” value was determined as 284 MFI, the “MFI (anti-human Fc) at 20 nM” value came out at 411 MFI and the “MFI (anti-human Fc) at 100 nM” value was found to be 628 MFI. The “fold change of MFI vs WT CD80 at 20 nM” value came to 2.3 fold.

Consider B13, for which the “MFI (anti-human Fc) at 0.8 nM” value amounted to 195 MFI, the “MFI (anti-human Fc) at 4 nM” value was found to be 199 MFI, the “MFI (anti-human Fc) at 20 nM” value amounted to 203 MFI and the “MFI (anti-human Fc) at 100 nM” value came to 227 MFI. For the same molecule, the “fold change of MFI vs WT CD80 at 20 nM” value came to 1.1 fold.

Take B14: the “MFI (anti-human Fc) at 0.8 nM” value was 375 MFI, the “MFI (anti-human Fc) at 4 nM” value is 480 MFI, the “MFI (anti-human Fc) at 20 nM” value amounted to 722 MFI and the “MFI (anti-human Fc) at 100 nM” value was 999 MFI. Besides, the “fold change of MFI vs WT CD80 at 20 nM” value was 4 fold.

Take B15: the “MFI (anti-human Fc) at 0.8 nM” value stood at 285 MFI, the “MFI (anti-human Fc) at 4 nM” value was 544 MFI, the “MFI (anti-human Fc) at 20 nM” value turned out to be 1020 MFI and the “MFI (anti-human Fc) at 100 nM” value came out at 1330 MFI. The “fold change of MFI vs WT CD80 at 20 nM” value was found to be 5.6 fold.

Turning to B16, the “MFI (anti-human Fc) at 0.8 nM” value turned out to be 458 MFI, the “MFI (anti-human Fc) at 4 nM” value turned out to be 991 MFI, the “MFI (anti-human Fc) at 20 nM” value came out at 1680 MFI and the “MFI (anti-human Fc) at 100 nM” value amounted to 2200 MFI. For the same molecule, the “fold change of MFI vs WT CD80 at 20 nM” value was 9.3 fold.

Turning to B17, the “MFI (anti-human Fc) at 0.8 nM” value worked out at 189 MFI, the “MFI (anti-human Fc) at 4 nM” value came out at 213 MFI, the “MFI (anti-human Fc) at 20 nM” value amounted to 336 MFI and the “MFI (anti-human Fc) at 100 nM” value worked out at 636 MFI. The “fold change of MFI vs WT CD80 at 20 nM” value came to 1.9 fold.

In the case of B18, the “MFI (anti-human Fc) at 0.8 nM” value was determined as 540 MFI, the “MFI (anti-human Fc) at 4 nM” value came to 1350 MFI, the “MFI (anti-human Fc) at 20 nM” value turned out to be 2290 MFI and the “MFI (anti-human Fc) at 100 nM” value was determined as 2760 MFI. The “fold change of MFI vs WT CD80 at 20 nM” value is 12.7 fold.

Regarding B19, the “MFI (anti-human Fc) at 0.8 nM” value worked out at 234 MFI, the “MFI (anti-human Fc) at 4 nM” value came out at 410 MFI, the “MFI (anti-human Fc) at 20 nM” value amounted to 910 MFI and the “MFI (anti-human Fc) at 100 nM” value was determined as 1640 MFI. For the same molecule, the “fold change of MFI vs WT CD80 at 20 nM” value was determined as 5.1 fold.

(Values after patent US20250243260A1 (ALPINE IMMUNE SCIENCES, published 2025).)
